# Paper PMC5892938
# The list shows a part of the results. The source does not settle which construct or isoform was used.
# Target: GST-SBP-ILF3 (Homo sapiens) (UniProt Q12906)
# Test: targeted RNA Bind-n-Seq
# Conditions: RBNS binding buffer: 25 mM Tris pH 7.5, 150 mM KCl, 3 mM MgCl2, 0.1% Tween, 0.5 mg/mL BSA, 1 mM DTT; 27 nM protein, 750 pM RNA pool; temperature not stated; high values mean tight binding; sequences stand for … in GGGUAAAAGCGAGGUGAA…CGGGACAAGUAUUAUGGG
row,Sequence,binding signal (log2 fold change)
1,UUUUUUUUUUGAGAGCGGUACGCUCUCCUG [tttttgagapaired],-0.185
2,UUUUUUUUUUGAGAGGGAGCCCCUCUUCUG [tttttgagapaired],0.437
3,UUUUUUUUUUGAGAGGGGGACCCUUUCCAG [tttttgagapaired],0.513
4,UUUUUUUUUUGAGAUCGGCACGAUCUCCGG [tttttgagapaired],0.211
5,UUUUUUUUUUGAGACUGUGACAGUCUCCGG [tttttgagapaired],0.477
6,UUUUUUUUUUGAGAUGGUUUCCGUCUCCUA [tttttgagapaired],0.347
7,GUGGUGUGUGUUGGCAUCUAACACACAUCG [gtspaired],-0.608
8,UUUUUUUUUUGAGAUGGGGCCCAUCUCCUA [tttttgagapaired],0.51
9,UUUUUUUUUUGAGAUGGCGGCCAUCUUCUA [tttttgagapaired],0.533
10,UUUUUUUUUUGAGACGGAAGCCGUCUUCUA [tttttgagapaired],0.183
11,GUGUGUUGUGUUGGUUCCUAACACAGCACG [gtspaired],-0.596
12,UUUUUUUUUUGAGAGGGCGUCCCUCUCCAG [tttttgagapaired],0.959
13,UUUUUUUUUUGAGAUCGAUGCGAUCUCCUA [tttttgagapaired],0.17
14,UUUUUUUUUUGAGACGGCUCCCGUCUCCUA [tttttgagapaired],0.734
15,UUUUUUUUUUGAGAGCGGGUCGCUCUCCAG [tttttgagapaired],0.339
16,UUUUUUUUUUGAGAUGGGCUCCAUCUCCUG [tttttgagapaired],0.75
17,UUUUUUUUUUGAGACUGCGACAGUCUCCUA [tttttgagapaired],0.315
18,GUGUGGUGUGUUGGACCCUAACACAUCACA [gtspaired],-0.409
19,GGUUGUUGUGUUGGAACCUAACACAGCAAC [gtspaired],-0.254
20,UUUUUUUUUUGAGAGCGACGCGCUCUCCUA [tttttgagapaired],0.11
21,GUGGUGUGUGUUGGAGCCUAACACACGCCG [gtspaired],-0.42
22,GUUGUGUGUGUUGGCAUCUAACACACGCAG [gtspaired],-0.762
23,GUGGUGUGUGUUGGCCUCUAACACACACUA [gtspaired],-0.378
24,UUUUUUUUUUGAGAGCGAGUCGCUCUCCUA [tttttgagapaired],0.111
25,UUUUUUUUUUGAGAGCGGCACGUUCUCCUA [tttttgagapaired],0.231
26,UUUUUUUUUUGAGAGCGGGUCGCUCUUCUG [tttttgagapaired],0.46

row,Sequence,binding signal (log2 fold change)
1,UUUUUUUUUUGAGAUGGGGGCUAUCUCCGG [tttttgagapaired],0.765
2,UUUUUUUUUUGAGACGGCUACCGUCUCCGG [tttttgagapaired],0.373
3,UUUUUUUUUUGAGACGGAAGCUGUCUCCAG [tttttgagapaired],0.817
4,GUGGUGUGUGUUGGACUCUAACACAUACCG [gtspaired],-0.535
5,GUGUGUGGUGUUGGCGUCUAACACCGCAUA [gtspaired],-0.591
6,GUGUGUUGUGUUGGUAUCUAACACAGCACA [gtspaired],-0.738
7,GUGUGGUGUGUUGGUGCCUAACACAUCACG [gtspaired],-0.539
8,UUUUUUUUUUGAGACUGGUUCAGUCUCCGG [tttttgagapaired],0.000972
9,UUUUUUUUUUGAGAUGGUUUCCGUCUCCGG [tttttgagapaired],0.679
10,GGUUGUGGUGUUGGAGCCUAACACCGCAGC [gtspaired],-0.319
11,GUGUGUUGUGUUGGAACCUAACACAGCACG [gtspaired],-0.884
12,UUUUUUUUUUGAGACUGCGACAGUCUCCGG [tttttgagapaired],0.385
13,UUUUUUUUUUGAGACGGUAGCCGUUUCCUA [tttttgagapaired],0.273
14,UUUUUUUUUUGAGAGGGGCUCCCUUUCCAG [tttttgagapaired],0.642
15,GUGGUGUGUGUUGGUACCUAACACAUACUA [gtspaired],-0.816
16,UUUUUUUUUUGAGAGGGUGUCCCUCUCCUG [tttttgagapaired],0.958
17,UUUUUUUUUUGAGAGUGCAGCAUUCUCCAG [tttttgagapaired],0.337
18,UUUUUUUUUUGAGAUCGUAACGAUCUCCAG [tttttgagapaired],0.0559
19,UUUUUUUUUUGAGAACGGAGCGUUCUCCAG [tttttgagapaired],0.206
20,UUUUUUUUUUGAGAUGGCAUCCAUCUCCUA [tttttgagapaired],0.212
21,UUUUUUUUUUGAGAUCGGUACGAUCUUCUG [tttttgagapaired],0.135
22,UUUUUUUUUUGAGAGGGCAGCCCUCUCCGG [tttttgagapaired],1.06
23,GUGUGUUGUGUUGGACCCUAACACAGCGCA [gtspaired],-0.465
24,GGUGUUGGUGUUGGUUCCUAACACCGACGC [gtspaired],-0.151
25,UUUUUUUUUUGAGAUGGUAACCAUUUCCAG [tttttgagapaired],0.185
26,UUUUUUUUUUGAGAGCGGAUCGCUCUUCUG [tttttgagapaired],0.201

row,Sequence,binding signal (log2 fold change)
1,UUCCUCUCUCCUCCUGGGGAGGGGGGAGGA [ctspaired],-0.174
2,UUUUUUUUUUGAGAAGGACUCCUUCUCCUG [tttttgagapaired],0.0114
3,GUGGUGUGUGUUGGCCCCUAACACACACUA [gtspaired],-0.133
4,UUUUUUUUUUGAGACGGAAACUGUUUCCAG [tttttgagapaired],0.631
5,UUUUUUUUUUGAGAACGAGGCGUUCUUCUA [tttttgagapaired],0.108
6,UUUUUUUUUUGAGAUGGAUGCCAUUUCCGG [tttttgagapaired],0.553
7,GUGUGUGGUGUUGGAUUCUAACACCGCACG [gtspaired],-0.0941
8,GUUGGUGGUGUUGGAACCUAACACCAUCAA [gtspaired],-0.266
9,UUUUUUUUUUGAGAGGGGCGCCCUCUCCUG [tttttgagapaired],0.772
10,UUUUUUUUUUGAGAGCGGAUCGUUCUCCAG [tttttgagapaired],0.252
11,UUUUUUUUUUGAGAGGGCUUCCCUCUCCUG [tttttgagapaired],0.824
12,UUUUUUUUUUGAGAUGGAUUCCGUCUCCAG [tttttgagapaired],0.162
13,GUGUUGUGUGUUGGUCCCUAACACACAACG [gtspaired],-0.155
14,GGUGUGUGUGUUGGAUCCUAACACAUACAC [gtspaired],-0.491
15,UUUUUUUUUUGAGAACGUGGCGUUCUCCGG [tttttgagapaired],0.31
16,UUUUUUUUUUGAGACUGGAUCAGUCUUCUA [tttttgagapaired],-0.0568
17,GGUUGUUGUGUUGGCACCUAACACAACGAC [gtspaired],-0.235
18,UUUUUUUUUUGAGAGGGUCCCCCUCUCCUG [tttttgagapaired],0.654
19,GUGGUGUGUGUUGGUCCCUAACACACACUA [gtspaired],-0.256
20,GUGGUUGGUGUUGGCGUCUAACACCGAUCA [gtspaired],-0.612
21,UUUUUUUUUUGAGACCGGGACGGUCUUCUA [tttttgagapaired],0.546
22,UUUUUUUUUUGAGACGGGAACUGUCUCCUA [tttttgagapaired],0.736
23,UUCCUCUCUCCUCCGGUGGAGGGGGGAGGA [ctspaired],-0.689
24,UUUUUUUUUUGAGAUGGGGGCCAUCUUCUG [tttttgagapaired],0.796
25,UUUUUUUUUUGAGACCGAUUCGGUCUUCUG [tttttgagapaired],0.18
26,UUUUUUUUUUGAGAUGGGAGCCAUCUUCUA [tttttgagapaired],0.119

row,Sequence,binding signal (log2 fold change)
1,GGUGGUUGUGUUGGCACCUAACACAAUCAC [gtspaired],-0.668
2,GUUGGUGGUGUUGGCCCCUAACACCGCCAA [gtspaired],-0.0443
3,UUUUUUUUUUGAGAUGGUAGCCAUUUCCAG [tttttgagapaired],0.368
4,UUUUUUUUUUGAGAUGGCGUCCAUCUCCUG [tttttgagapaired],0.812
5,UUUUUUUUUUGAGACUGGCACAGUCUCCUG [tttttgagapaired],0.56
6,UUUUUUUUUUGAGACCGGUUCGGUCUUCUG [tttttgagapaired],0.511
7,UUUUUUUUUUGAGACGGACACCGUCUUCUG [tttttgagapaired],0.521
8,UUUUUUUUUUGAGACCGUGACGGUCUCCUG [tttttgagapaired],0.389
9,UUUUUUUUUUGAGAGUGCGACAUUCUCCGG [tttttgagapaired],0.269
10,UUUUUUUUUUGAGACGGUAUCCGUUUCCAG [tttttgagapaired],0.531
11,UUUUUUUUUUGAGACUGAGACAGUUUCCGG [tttttgagapaired],0.532
12,UUUUUUUUUUGAGAGCGAGACGCUCUUCUG [tttttgagapaired],0.353
13,GUGUGUUGUGUUGGUGUCUAACACAGCACA [gtspaired],-0.689
14,UUUUUUUUUUGAGACUGGUGCAGUCUCCGG [tttttgagapaired],0.297
15,UUUUUUUUUUGAGACCGUAACGGUCUCCAG [tttttgagapaired],0.161
16,UUUUUUUUUUGAGAUGGAGUCCGUCUCCUA [tttttgagapaired],0.308
17,UUUUUUUUUUGAGAGCGUAUCGUUCUCCAG [tttttgagapaired],0.137
18,UUUUUUUUUUGAGAGGGACUCCCUCUCCUG [tttttgagapaired],0.419
19,GGUUGGUGUGUUGGAACCUAACACAUCAGC [gtspaired],-0.381
20,GGUGUGUGUGUUGGCGCCUAACACAUACGC [gtspaired],-0.403
21,GGUGGUGGUGUUGGUGUCUAACACCGCUAC [gtspaired],-0.681
22,GGUUGUGGUGUUGGUCUCUAACACCGCGAC [gtspaired],-0.488
23,UUUUUUUUUUGAGAUCGGAACGGUCUUCUA [tttttgagapaired],0.118
24,UUCUCUUCUCCUCCGGGGGAGGGGGAGAGA [ctspaired],-0.684
